Screen size: about 52,000 compounds; about 1,700 (3.3%) were called active. Cut-off read from the data, not from the text of the source: active = survival mostly below about 52% (no sharp cut-off); inactive = mostly above about 56%. The list shows a part of the results.
test system: Wild type; assay: growth inhibition of S. aureus wild type versus tarO mutant, primary screen, teichoic acid synthesis inhibitors, RN4220, OD600 (AID 463173); conditions: S. aureus RN4220 wild type/DeltatarO growth, OD600, 18 h, active compounds read low, screened at 18.75 µg/mL (by protocol)

Compound	survival
N#CC(C#N)=C1c2ccccc2-c2c1nc1ccccc1[n+]2[O-]	inactive: 117%
O=C(Nc1c(C(=O)N2CCN(c3ccc(F)cc3)CC2)oc2ccccc12)c1ccco1	inactive: 88%
COc1ccc(NC(=O)c2c(C)oc3ccc(O)c(CN4CCN(C)CC4)c23)cc1Cl	inactive: 88%
Cc1ccc(-c2nnc(Nc3ccc(C(N)=O)cc3)c3ccccc23)cc1S(=O)(=O)N1CCCCC1	inactive: 139%
COc1cccc(N2CCN(S(=O)(=O)c3ccc(-c4cnc(C5CC5)o4)cc3)CC2)c1	inactive: 85%
CCOC(=O)C1CCCN(CCC(=O)Nc2ccc(OC)cc2OC)C1 (centres undefined)	inactive: 136%
COc1ccc(CCNC(=O)c2ccc(CS(=O)(=O)c3ccc(C)cc3)o2)cc1OC	inactive: 80%
CCCc1nn2c(=O)cc(COC(=O)c3ccc(NC(=O)c4cccs4)cc3)nc2s1	inactive: 88%
CCc1ccc(NC(=O)CSC2=Nc3ccccc3C3=NC(CCC(=O)NCc4cccs4)C(=O)N23)cc1 (centres undefined)	inactive: 45%
O=C(CSc1nc2ccccc2n1Cc1ccc(F)c(Cl)c1)N1CCN(c2ccc(F)cc2)CC1	inactive: 68%
Cc1cccc(-n2ccnc2SCC(=O)Nc2ccccc2C(F)(F)F)c1	inactive: 66%
COc1ccc(CNC(=O)CCc2c(C)nc3c(c2C)c(=O)n(C)c(=O)n3C)cc1	inactive: 120%
CCn1cc(C(=O)NCCc2ccccc2)c(=O)c2cc(S(=O)(=O)N3CCOCC3)ccc21	inactive: 85%
O=C(/C=C\c1ccco1)Oc1cccc2cccnc12	active: 1%
O=C(NC1CCCC1)c1cc2ccccc2oc1=O	inactive: 114%
O=C(NC1CCCCCC1)C1CCCO1 (centres undefined)	inactive: 95%
Cc1ccc(Cn2c(C)c(CNC3CCCCC3)c(C(=O)O)c2C)cc1	inactive: 102%
CCC(=O)N1CCc2cc(S(=O)(=O)NC(C(=O)NCc3ccc(OC)cc3)C(C)C)ccc21 (centres undefined)	inactive: 86%
Cc1ccccc1-n1c(SCC(=O)N(C(C)C)C(C)C)nnc1-c1cccnc1	inactive: 106%
COc1cc(CN2CCc3nc(Nc4ccc5c(c4)OCCO5)ncc3C2)cc(OC)c1OC	inactive: 77%
COC(=O)c1ccc(NC(=O)c2nn(C)c3c2CS(=O)(=O)c2ccccc2-3)cc1	inactive: 84%
CCOC(=O)c1cc2c(=O)n3ccccc3nc2n(Cc2ccco2)c1=NC(=O)c1cc(C)cc(C)c1	inactive: 55%
CCc1ccccc1NC(=O)CC(c1ccc(F)cc1)N1Cc2ccccc2C1=O (centres undefined)	inactive: 121%

Compound	survival
COc1ccc(CCNc2nc3c(c(=O)n(C)c(=O)n3C)n2Cc2ccc(F)cc2)cc1OC	inactive: 82%
COc1cccc(N2C(=O)CSC23C(=O)N(CC(=O)Nc2cc(C)ccc2C)c2ccccc23)c1 (centres undefined)	inactive: 74%
COc1ccc(OC)c(CCNC(=O)CCCc2nnc3n(C)c(=O)c4sccc4n23)c1	inactive: 87%
COc1ccc2[nH]cc(CCNC(=O)Nc3ccccc3C)c2c1	inactive: 64%
CC1CCN(S(=O)(=O)c2ccc3nc(-c4cccnc4)cc(C(=O)NCCCOC(C)C)c3c2)CC1	inactive: 84%
Cc1cc(C)c(NC(=O)c2sc3nc(C)cc(C)c3c2N)c(C)c1	inactive: 73%
COc1ccc(C)cc1NC(=O)CN1CCN(CC(=O)Nc2ccccc2F)CC1	inactive: 72%
Cc1ccc2sc(N3CCN(C(=O)C4COc5ccccc5O4)CC3)nc2c1C (centres undefined)	inactive: 148%
CCCS(=O)(=O)N1CCN(Cc2ccc(OC)c(OCC)c2)CC1	inactive: 103%
Cc1ccc(Cl)cc1NC(=O)c1oc2ccc(S(=O)(=O)N3CCC4(CC3)OCCO4)cc2c1C	inactive: 80%
COc1ccc(NC(=O)Nc2cn(CC(C)C)c(=O)c3ccccc23)c(OC)c1	inactive: 77%
O=C1C2=C(Nc3ccccc3SC2c2c(F)cccc2Cl)c2ccccc21 (centres undefined)	inactive: 85%
COc1ccc(-c2cc(-c3ccccc3)nc3c2COc2ccc(Cl)cc2-3)cc1	inactive: 77%
O=C(NCCc1ccc(F)cc1)C(=O)NCC(c1cccs1)S(=O)(=O)c1cccs1 (centres undefined)	inactive: 126%
COC(=O)c1ccc(NS(=O)(=O)c2ccc3[nH]c4c(c3c2)CCCCC4)cc1	inactive: 119%
Cc1oc2ncn(C)c(=O)c2c1C(=O)N(C)c1ccccc1F	inactive: 112%
CC(C)(C)OC(=O)N1CCC(c2c(C(=O)N3CCN(C4CCCCC4)CC3)cnn2-c2cccc(Cl)c2)CC1	inactive: 72%
CCN1C(=O)C(O)(c2c(C)[nH]c3ccccc23)c2ccccc21 (centres undefined)	inactive: 67%
COc1ccc(NC(=O)CSC2=Nc3ccccc3C3=NC(CCC(=O)NCCc4ccccc4)C(=O)N23)cc1 (centres undefined)	inactive: 79%
CCOC(=O)N1CCC(NC(=O)c2cnn(-c3cccc(C)c3)c2-n2cccc2)CC1	inactive: 80%
CC(=O)N1CCCc2cc(S(=O)(=O)N3CCC(C(=O)NC4CCCCC4)CC3)ccc21	inactive: 110%
COc1ccc2cc(C#N)c(N3CCCN(C(=O)/C=C/C(=O)O)CC3)nc2c1	inactive: 119%
Cc1ccc(C)c(NC(=O)C(C)N(c2ccccc2)S(C)(=O)=O)c1 (centres undefined)	inactive: 125%

Compound	survival
Cc1oc2ncn(CC(C)C)c(=O)c2c1C(=O)Nc1ccc(Cl)cn1	inactive: 68%
Cc1cccc(-n2cc(-c3ccccc3)nc2SCC(=O)Nc2ccccc2Cl)c1	inactive: 115%
Cc1ccc(C)c(S(=O)(=O)NCC(c2ccc(N(C)C)cc2)N2CCOCC2)c1 (centres undefined)	inactive: 73%
O=C(NCc1ccccc1Cl)C1CCCN(c2nc3ccccc3n3cccc23)C1 (centres undefined)	inactive: 78%
CC(C)c1ccc(NS(=O)(=O)c2ccc3[nH]cc(C(=O)NC4CCCCC4)c(=O)c3c2)cc1	inactive: 13%
CCOc1ccc(CNCCNC(=O)c2nonc2N)cc1	inactive: 91%
CCC(C)C12CN(C(C)=O)CC(C)(CN(C(C)=O)C1)C2=O (centres undefined)	inactive: 113%
Cc1cccc(OCCn2nnc3sc4c(c3c2=O)CCCC4)c1	inactive: 83%
CCOC(=O)c1sc(NC(=O)c2nc(SC)ncc2Cl)c(C(=O)OCC)c1C	inactive: 90%
CCOCc1nnc(NS(=O)(=O)c2ccc(Cl)cc2)s1	inactive: 113%
COc1ccc(-n2c(-c3ccc(Cl)cc3)cc3c2CC(C)(C)CC3=O)c(OC)c1	active: 3%
CC1=C(C(=O)Nc2ccc(C)cc2C)C(c2ccc(C(C)C)cc2)n2nc(C(F)(F)F)nc2N1 (centres undefined)	inactive: 82%
COc1ccc(CNC(=O)Cc2c(C)c3ccc(O)cc3oc2=O)cc1	inactive: 84%
CCCC1CC(C)(/C(C)=N\NC(N)=S)OC1=O (centres undefined)	inactive: 113%
NNc1c(O)c(C(=O)O)cc2ccccc12	inactive: 94%
Cc1cccc(NC(=O)c2sc3cccc(Cl)c3c2Cl)c1	active: 6%
Cc1cccc(C)c1NC(=O)c1ccc2nc(CCc3ccccc3)oc2c1	inactive: 69%
CCCCNC(=O)CSc1c2c(nc3ccc(Cl)cc13)CCCC2	inactive: 66%
COc1ccc(-c2nc3ccccc3s2)cc1NC(=O)c1ccccc1OC	inactive: 53%
CNC(=O)c1c(NC(=O)c2cc(=O)c3ccccc3o2)sc2c1CCC2	inactive: 73%
COc1ccc(CCNC(=O)c2ccc3c(c2)nc2n3CCOC2)cc1OC	active: -4%
Cn1c(=O)c2sccc2n2c(CCCC(=O)Nc3ccc(F)c(F)c3)nnc12	inactive: 105%
COc1cccc(-c2nc(S(=O)(=O)c3ccccc3)c(NCc3ccccc3)o2)c1	inactive: 84%

Compound	survival
COc1cccc(-c2cc(C(F)(F)F)nc(NCc3ccc(F)cc3)n2)c1	active: 0%
CC(C)c1ccc(NC(=O)CCS(=O)(=O)c2ccc(Br)s2)cc1	inactive: 130%
CC1=C(C(=O)Nc2ccccc2)C(c2ccncc2)n2nc(SCc3ccccc3)nc2N1 (centres undefined)	inactive: 75%
Cc1cccc2cc(C#N)c(SCC#N)nc12	inactive: 103%
COCCCNC(=O)c1c(C)nn(-c2ccc(F)cc2)c1-n1cccc1	inactive: 77%
Cc1c(C(=O)Nc2ccc(F)cc2F)nnn1-c1ccccc1Br	inactive: 68%
COc1ccc(C(=O)/C=C/c2cn(CC(O)CN(CC(C)C)CC(C)C)c3ccccc23)cc1OC (centres undefined)	inactive: 60%
CCc1nn(CC(=O)NCc2cccc(OC)c2OC)c(=O)c2cc3occc3n12	inactive: 120%
O=C(NCCCO)C(=O)Nc1c2c(nn1-c1ccc(F)cc1)CSC2	inactive: 119%
COc1ccc(NC(=O)C2=C(C)Nc3nc(SC)nn3C2c2cc(OC)ccc2OC)cc1 (centres undefined)	inactive: 72%
Cc1nnc(N2CCC(C(=O)NCc3ccc(N(C)C)cc3)CC2)c2nn(-c3ccccc3)c(C)c12	inactive: 113%
COc1cccc2cc(C(=O)N3CCCCC3)c(=O)oc12	inactive: 106%
c1ccc(N2CCN(c3ncnc4c3nc3n4CCCC3)CC2)cc1	inactive: 69%
O=C(CSc1nc2ccccc2n1Cc1cccc(Cl)c1)N1CCN(c2ccc(F)cc2)CC1	inactive: 110%
CN(CC(=O)Nc1cccc(C#N)c1)S(=O)(=O)c1cc2c(cc1Cl)NC(=O)CO2	inactive: 129%
CCOc1ccccc1CNC(=O)CC(C)n1ccc(C)n1 (centres undefined)	inactive: 73%
COc1ccc(OC)c(CNC(=O)Cn2nc(C)c3c(C)n(-c4ccccc4)nc3c2=O)c1	inactive: 81%
Cc1cc2oc(C(=O)Nc3cccc(-c4nc5ccccc5o4)c3)c(C)c2cc1Cl	inactive: 91%
O=C(Nc1ccc(Cl)cc1)c1ccc2c(c1)N(Cc1ccccc1)C(=O)c1ccccc1S2(=O)=O	inactive: 149%
COc1ccc(NC(=O)Cn2c(=O)n(Cc3ccco3)c(=O)c3sc4ccccc4c32)cc1Cl	inactive: 77%

Reference: PubChem BioAssay AID463173 (ICCB-Longwood Screening Facility, Harvard Medical School, 2010)
